Laboratory results from US20150209335A1, “METHODS AND SMALL MOLECULE THERAPEUTICS COMPRISING FUSED ELPS” (UNIVERSITY OF SOUTHERN CALIFORNIA, priority 2012, published 2015).

Experiment: Rapa encapsulation and release from ELP nanoparticles, dialysis under sink conditions, RP-HPLC
Assay type: physicochemical
Procedure: Dialysis under sink conditions was used track the loss of Rapa from the nanoparticles. Mean±SD (n=3).
A two phase method was developed to encapsulate Rapa into the ELP nanoparticles. An aqueous phase PBS containing S48I48 or FKBP-S48I48 was mixed with an organic phase hexane/EtOH containing Rapa in a small glass vial. The vial was kept stirred and heated up to the CMT of S48I48 or FKBP-S48I48. A nitrogen flow was applied to facilitate the evaporation of the hexane/EtOH phase. A 13.2K 10 min centrifugation was performed to remove the insoluble Rapa after the organic phase evaporated out. 100 μL of the sample was filtered and injected into a C-18 reverse phase HPLC column to analyze the amount of the Rapa that was initially encapsulated. Rapa releasing experiment was performed under a sink condition of H2O dialysis. Samples were collected in the dialysis cassette at time points of 0 h, 1 h, 2 h, 4 h, 6 h, 9 h, 19.5 h, 27 h, 31 h and 48 h. RP-HPLC was used to determine the amount of Rapa that was retained inside the ELP nanoparticle core.

B1: FKBP-S48I48: fusion protein: FKBP inserted at N-terminus of ELP diblock copolymer S48I48; assembles nanoparticles above CMT (protein)
chain: [about 100 residues skipped]GVPGSGVPGSGVPGSGVPGSGVPGSGVPGSGVPGSGVPGSGVPGSGVPGSGVPGSGVPGSGVPGSGVPGSGVPGSGVPGSGVPGSGVPGSGVPGSGVPGSGVPGSGVPGSGVPGSGVPGSGVPGSGVPGSGVPGSGVPGSGVPGSGVPGSGVPGSGVPGSGVPGSGVPGSGVPGSGVPGSGVPGSGVPGSGVPGSGVPGSGVPGSGVPGSGVPGSGVPGSGVPGSGVPGSGVPGSGVPGSGVPGIGVPGIGVPGIGVPGIGVPGIGVPGIGVPGIGVPGIGVPGIGVPGIGVPGIGVPGIGVPGIGVPGIGVPGIGVPGIGVPGIGVPGIGVPGIGVPGIGVPGIGVPGIGVPGIGVPGIGVPGIGVPGIGVPGIGVPGIGVPGIGVPGIGVPGIGVPGIGVPGIGVPGIGVPGIGVPGIGVPGIGVPGIGVPGIGVPGIGVPGIGVPGIGVPGIGVPGIGVPGIGVPGIGVPGIGVPGIGY
share of rapamycin bound to FKBP domain (FKBP-S48I48 nanoparticles): about 30%
share of rapamycin encapsulated in nanoparticle core (FKBP-S48I48 nanoparticles): about 70%
releasing half-time of rapamycin bound to FKBP (dialysis, FKBP-bound population): 58 h
releasing half-time of rapamycin encapsulated in nanoparticle core (dialysis, core-entrapped population): about 2 hrs
